SMILES strings stand for the structures. Among all 50,000 compounds or so, about 800 (1.6%) showed an effect of 50% or more. This is one part of the list.

The assay has as its target Bcl-2-like protein 10 (Homo sapiens) (UniProt Q9HD36). Put plainly: Phenotype converters, Bcl-B/TR3 peptide binding displacement, primary biochemical FP (AID 1240).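 Further: 0% = Bcl-B with tracer peptide and DMSO and 100% = tracer peptide lacking Bcl-B.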 As to conditions: GST-Bcl-B / FITC-TR3 peptide fluorescence polarization; stronger effect = higher value; compound at 3.75 mg/L. (In fluorescence polarisation assays a small probe gives low polarisation when free and higher when bound to something large.)
Chain of UniProt Q9HD36 (Q9HD36 whole entry, looked up): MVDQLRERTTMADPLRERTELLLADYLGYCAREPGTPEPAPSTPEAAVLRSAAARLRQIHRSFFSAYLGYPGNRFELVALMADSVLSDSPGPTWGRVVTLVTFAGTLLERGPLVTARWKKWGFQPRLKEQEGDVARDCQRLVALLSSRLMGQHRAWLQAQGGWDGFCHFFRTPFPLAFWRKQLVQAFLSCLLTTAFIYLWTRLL
Take `Cc1ccccc1N(CC(=O)O)S(=O)(=O)c1ccccc1`: the displacement worked out at 4.8%.

`Cc1[nH]n(-c2nc(-c3cccc([N+](=O)[O-])c3)cs2)c(=O)c1N=Nc1ccc(Cl)c(Cl)c1`: the displacement was -15.7%. Take `Cc1ccc(S(=O)(=O)O/N=C2\CCCc3nonc32)cc1`: the displacement came out at 1.5%. Take `Cc1c(Br)c(C(F)(F)F)nn1CC(=O)N1CCc2ccccc2C1`: the displacement amounted to 14.1%.

Take `COC(=O)C1=NN(C(C)=O)C(O)(c2ccccc2)C1` (stereo not given): the displacement was determined as 2.1%. In the case of `CC1CN(Cc2c(O)ccc3c(=O)c(Oc4ccccc4Br)c(C(F)(F)F)oc23)CC(C)O1` (stereo not given), the displacement is -3.2%.

In the case of `FC(F)(F)c1ccccc1CN1CCN(Cc2ccccc2Cl)CC1`, the displacement is 5.9%. Consider `Cc1ccc2nc(NC(=O)C3CCCO3)sc2c1` (stereo not given), for which the displacement is -0.2%. With `CCOC(=O)C1=C(C)NC(=S)NC1c1cc([N+](=O)[O-])ccc1O` (stereo not given), the displacement is -2.7%. Take `CN(C(=O)c1ccc(Cl)cc1)c1ccccc1`: the displacement is -6.4%. Regarding `CCSc1nc2c(cc1C#N)CCCC2`, the displacement turned out to be 0.9%. Regarding `Cc1cc(NCCCN(C)C)n2c(nc3ccccc32)c1C#N`, the displacement is -13.5%. Take `COc1ccc(C2CC(=O)C3=C(C2)Nc2ccccc2NC3c2c(F)cccc2Cl)cc1` (stereo not given): the displacement is -9%. Turning to `CCc1nc2c(C)ccc(C)c2c(N)c1C`, the displacement is -21.7%.

Turning to `Cc1ccc(C(=O)Sc2nc(-c3ccccc3)[nH]c2S(=O)(=O)c2ccc(C)cc2)cc1`, the displacement was 6.5%. Consider `CCN(CC)C(=O)CN(c1ccc(Oc2ccccc2)cc1)S(C)(=O)=O`, for which the displacement was found to be 2.2%. As for `CSc1nc(C)c(C(=O)Nc2ccccc2)c(C)c1C#N`, the displacement is -8.9%. On to `CCC(=O)Nc1ccc(NC(=O)/C=C/c2ccco2)cc1`, for which the displacement was found to be 4.4%.

Turning to `CCCc1c(O)nc(SCC(=O)O)[nH]c1=O`, the displacement was 0.2%.

`CC1=CC(C)(C)N(C(=O)c2ccccc2)c2ccccc21`: the displacement is -27.4%. In the case of `Cc1cc([N+](=O)[O-])ccc1-c1ccc(C(=O)Nc2ccc(I)cc2Cl)o1`, the displacement stood at 11.2%.

In the case of `COc1ccc(N(CC(=O)Nc2ccc(I)cc2)S(=O)(=O)c2ccc(C)cc2)c(OC)c1`, the displacement was 11.3%. Turning to `Clc1cccc(CN2CCN(Cc3ccncc3)CC2)c1`, the displacement is -20.6%. Under `O=C(NCCCO)/C(=C/c1ccc2c(c1)OCO2)NC(=O)c1ccc(Br)o1` stands 2.1%; under `Cc1cc(C)c(OCC(=O)Nc2cccc([N+](=O)[O-])c2)c(C)c1`, 11.6%. `CCOC(=O)CNC(=O)c1ccc(C#Cc2ccccc2)cc1`: the displacement came out at 2.2%. In the case of `COc1ccc(/C=C/C(=O)O)cc1S(=O)(=O)NCCCO`, the displacement turned out to be 11.4%. As for `CCOC(=O)c1c(NC(=O)CCN2CCN(C)CC2)sc2c1CCCC2`, the displacement is -4.7%. Regarding `COC(=O)C1=C(C)NC2=C(C(=O)CC(c3ccc(OC)cc3)C2)C1c1cc(OC)ccc1OC` (stereo not given), the displacement came to 0.1%. Consider `O=C(c1ccc([N+](=O)[O-])cc1Cl)N1CCN(c2ccccn2)CC1`, for which the displacement was -6%. For `COc1ccccc1N1C(=O)CC(Nc2ccc(N3CCOCC3)cc2)C1=O` (stereo not given), the displacement is -13%. Turning to `CC(=O)Nc1ccc(C(=O)CSc2n[nH]c(-c3ccccc3)n2)cc1`, the displacement came out at 9.9%.

With `Cc1ccc(/C=C2\SC(=S)N(CCC(=O)Nc3ccc(S(=O)(=O)Nc4nccs4)cc3)C2=O)cc1`, the displacement was -3.5%. Under `Cc1c(NC(=S)NCc2ccccc2)c(=O)n(-c2ccccc2)n1C` stands 0.5%; under `O=C(NC1CCN(Cc2ccccc2)CC1)c1ccc(F)cc1`, 2.6%; under `CCCOc1cccc(C(=O)Nc2ccc(NC(=O)CC)cc2)c1`, 6.4%.

On to `O=C(/C=C/c1cn(-c2ccccc2)nc1-c1ccccc1)c1cccs1`, for which the displacement was determined as 12.3%.

In the case of `O=[N+]([O-])c1ccc(Cl)c(/C=N/NS(=O)(=O)c2ccccc2)c1`, the displacement is 3.9%.

With `CCOC(=O)C1=C(C)N(c2ccccc2)C(=O)/C1=C\c1cccc([N+](=O)[O-])c1`, the displacement came to 12.8%.

Turning to `Cc1ccc(-n2nnnc2C(=N)c2nnnn2-c2ccc(C)cc2)cc1`, the displacement was found to be 6.1%.

For the molecule `O=C(CC1SC(=O)NC1=O)Nc1ccccc1` (stereo not given), the displacement is 7%. As to `O=C(Oc1ccc(I)cc1)c1cccs1`, the displacement was -7.4%. `Clc1ccc(/C=N/n2cnnc2)cc1`: the displacement was found to be 7.9%. Turning to `CCOP(=O)(OCC)C(Nc1ccccc1)c1cc(Cl)cc(Cl)c1OC` (stereo not given), the displacement was -14.6%.

In the case of `CC(=O)Nc1ccc2c(c1)C1C=CCC1C(c1ccccc1[N+](=O)[O-])N2` (stereo not given), the displacement worked out at 8.7%. With `O=C(NC(=S)Nc1ccc2oc(-c3ccccc3Br)nc2c1)c1ccco1`, the displacement was determined as 38.7%. Take `O=C(O)c1cc2nc3c(c(C(F)(F)F)n2n1)CCc1ccccc1-3`: the displacement stood at 19.4%. Under `CC1=C(C)C(C)=C(C#N)C(=C(C#N)C#N)N1` stands 4.4%; under `CCc1cccc(C)c1NC(=O)c1ccc(Br)o1`, 6.8%; under `C/C(=N\N1CCN(c2ccccc2)CC1)c1ccc(F)cc1`, -8.7%. In the case of `COc1cccc(/C=C/C(=O)c2cccc([N+](=O)[O-])c2)c1OC`, the displacement is -2.6%.

In the case of `CCC1(C)Cc2c(sc3nc(SCc4ccccc4)[nH]c(=O)c23)CO1` (stereo not given), the displacement was -2.7%. To `O=c1c(/C=C(\O)c2ccc([N+](=O)[O-])cc2)nc2ccccc2n1-c1ccccc1` belongs 20.1%. Under `CCOC(=O)c1sc(N=NC2=C(O)CCCC2=O)c(C(=O)OCC)c1C` stands 27.7%; under `CCc1ccc(NC(=O)C2CC2c2ccccc2)cc1` (stereo not given), 13.6%. For the molecule `S=C(NCC1CCCO1)Nc1ccc(Cl)cc1Cl` (stereo not given), the displacement stood at 0.9%. To `CCOC(=O)C1=C(O)/C(=C\c2ccccc2)SC1=Nc1cccc(Cl)c1` belongs -9.4%; to `COc1ccccc1NS(=O)(=O)c1cc(N2C(=O)C3C4C=C(C)C(C4)C3C2=O)ccc1Cl` (stereo not given), -28.4%. Consider `N#C/C(=C/c1c[nH]c2ccccc12)C(=O)Nc1cccc(Br)c1`, for which the displacement came to 90.7%. Under `NC(=O)c1cc(NC(=O)COc2ccc(F)cc2)cc(C(N)=O)c1` stands 7%. Turning to `CC(C)(C)c1cc(C(=S)N2CCOCC2)cc(C(C)(C)C)c1O`, the displacement was -12.7%. To `Cc1ccc(-c2cc(-c3ccc(C)cc3O)[nH]n2)cc1` belongs 0.3%; to `O=C(CSc1nc2ccccc2n1Cc1ccccc1)N/N=C/c1ccc([N+](=O)[O-])cc1`, -9.9%; to `O=S(=O)(Nc1cccc(C(F)(F)F)c1)c1cccs1`, 2.8%. As to `CCOC(=O)c1c(NC(=O)c2ccc(OC)c(OC)c2)sc(C(=O)N2CCCCC2)c1C`, the displacement was -1.2%. For the molecule `O=C(CSCc1ccccc1)Nc1ccccc1Cl`, the displacement worked out at 11.1%.

Turning to `COc1ccc(/C=C/C(=O)Nc2c(F)c(F)c(F)c(F)c2F)cc1`, the displacement is 10.9%.

On to `O=C(CSc1nnc(-c2cccnc2)o1)c1ccc(Br)cc1`, for which the displacement was 8%. In the case of `C=CCN(CC=C)S(=O)(=O)c1ccc(NC(C)=O)cc1`, the displacement is -11.7%. Under `Cc1ccc(C(C)C)c(OC(=O)c2ccccc2[N+](=O)[O-])c1` stands 3%.

The values are drawn from PubChem BioAssay AID1240 (Sanford-Burnham Center for Chemical Genomics, 2008).
